# PubChem BioAssay AID1468 (National Center for Advancing Translational Sciences (NCATS), 2008)
# In all, about 280,000 compounds went through this assay and about 1,100 (0.39%) were called active. The inconclusive results got no clear call from the source; some entries with a clear call stand among them for comparison. Calls come from the whole dose curve; as a rule, active = well fitted inhibition curve with a large enough effect; inconclusive = small, poorly fitted or top-dose-only effect, or effect the other way; inactive = flat fitted curve, though single readings scatter. No potency is given beside an inconclusive call; the fits are too rough.
# Target: Microtubule-associated protein tau (Homo sapiens) (UniProt P10636)
# Test: qHTS for Inhibitors of Tau Fibril Formation, Fluorescence Polarization; note: nearly all actives have a fitted effect of over 55% in size
# Conditions: K18 P301L tau heparin fibrillization, Alexa594 FP, 6 h; series mostly up to 57.7 µM
# Method in brief: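 K18 P301L tau (15 uM unlabeled/0.24 uM Alexa 594-labeled, final) + compound + heparin 20 uM final; 100 mM NaOAc pH 7; 6 hr 37 C; ThT 30 uM final added, 1 hr RT; FP ex 555/em 632 nm.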
# Potency is the fitted concentration of half-maximal effect; tags give direction and shape of the fitted curve.
# UniProt P10636, sequence (P10636 whole entry, looked up): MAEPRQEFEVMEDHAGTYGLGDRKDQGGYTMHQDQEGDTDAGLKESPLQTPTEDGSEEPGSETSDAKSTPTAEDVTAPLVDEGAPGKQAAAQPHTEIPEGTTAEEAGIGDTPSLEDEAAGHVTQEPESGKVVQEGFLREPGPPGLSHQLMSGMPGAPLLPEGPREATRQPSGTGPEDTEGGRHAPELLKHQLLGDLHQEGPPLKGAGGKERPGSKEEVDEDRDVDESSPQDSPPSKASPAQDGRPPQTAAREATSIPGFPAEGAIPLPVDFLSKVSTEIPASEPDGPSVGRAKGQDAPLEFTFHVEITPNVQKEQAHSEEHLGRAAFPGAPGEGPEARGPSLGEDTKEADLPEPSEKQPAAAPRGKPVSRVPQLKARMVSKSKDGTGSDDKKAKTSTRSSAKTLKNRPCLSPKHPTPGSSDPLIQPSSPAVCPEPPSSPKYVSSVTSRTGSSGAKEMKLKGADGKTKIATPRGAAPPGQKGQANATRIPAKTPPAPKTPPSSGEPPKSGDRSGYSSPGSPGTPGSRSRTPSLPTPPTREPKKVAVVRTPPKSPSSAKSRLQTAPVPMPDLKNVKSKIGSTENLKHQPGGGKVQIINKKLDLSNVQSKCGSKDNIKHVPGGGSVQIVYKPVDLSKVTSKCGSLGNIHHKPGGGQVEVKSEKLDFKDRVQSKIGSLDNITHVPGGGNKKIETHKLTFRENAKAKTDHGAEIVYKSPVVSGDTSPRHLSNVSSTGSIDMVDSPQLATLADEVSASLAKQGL
row,Compound,Potency
1,Cc1cc(=O)[nH]c(-c2ccccc2)n1,"inconclusive [inhibitor, single point]"
2,O=[N+]([O-])c1ccc(N2CCOCC2)nc1,inactive
3,COc1ccc2c(c1)c1ccc3c(c1n2C)C(=O)C=CC3=O,active: 15.8 µM
4,C#CCn1c(S(=O)(=O)Cc2ccccc2Cl)nc(-c2ccccc2)c1-c1ccccc1,"inconclusive [inhibitor, partial curve, poor fit]"
5,COc1cc(NC(=S)NCCSc2ccc(C)cc2)cc(OC)c1,"inconclusive [inhibitor, single point]"
6,Nc1cc2c(cc1C(=O)c1ccccc1F)OCCO2,"inconclusive [activator, single point]"
7,Cc1ccc(-c2nc(-c3ccccn3)no2)cc1,inactive
8,COC(=O)NC1C=CCCC1C(C)=O (stereo not drawn),"inconclusive [inhibitor, single point]"
9,O=C(Nc1ccccc1N1CCCCC1)c1ccc(-c2cccc(Cl)c2)o1,inactive
10,Cc1ccc2c(c1)N(C(=O)N1CCC(C(=O)NCc3cccc(Br)c3)CC1)CCO2,"inconclusive [activator, partial curve, poor fit]"
11,O=C(Nc1ccc(Cl)cn1)Nc1ccccc1Cl,"inconclusive [inhibitor, single point]"
12,COC(=O)C1=C(C(=O)OC)C(c2cc([N+](=O)[O-])ccc2O)c2sc(=O)[nH]c2S1 (stereo not drawn),"inconclusive [inhibitor, partial curve, poor fit]"
13,Cc1ccc(NC(=O)c2nnn(Cc3ccccc3)c2N)cc1C,"inconclusive [inhibitor, partial curve]"
14,O=C(CSc1oc(-c2ccccc2)nc1S(=O)(=O)c1ccc(Br)cc1)c1ccccc1,"inconclusive [inhibitor, partial curve]"
15,O=C(Cn1nnc2ccccc21)Nc1ccc(Cl)cn1,inactive
16,C/C(=N\Nc1cccc([N+](=O)[O-])c1)c1ccccc1O,"inconclusive [activator, full curve, poor fit]"
17,O=C(Nc1ccc(Br)cc1)c1ccc(F)c(S(=O)(=O)NC2CCCCCC2)c1,"inconclusive [inhibitor, partial curve]"
18,CCOc1ccccc1NC(=O)C1CCCN(c2ncnc3onc(-c4ccc(F)cc4)c23)C1 (stereo not drawn),inactive
19,CC(C)C(=O)Nc1nnc(S(=O)(=O)N(C)Cc2ccc(F)cc2)s1,inactive
20,O=C(CSc1nc2ccccc2c(=O)n1-c1ccc(F)c(Cl)c1)Nc1cccc(S(=O)(=O)N2CCOCC2)c1,"inconclusive [inhibitor, partial curve, poor fit]"
21,Fc1ccc(-n2c(-c3ccco3)nc3nc4ccccc4nc32)cc1,inactive
22,CN1c2ccccc2N(C)C1(C)c1cccc2ccccc12,"inconclusive [inhibitor, single point]"

row,Compound,Potency
1,CCN1CCN(Cc2ccc(NC(=O)c3ccc(C)c(NC(=O)C(=O)c4c[nH]c5ccccc45)c3)cc2C(F)(F)F)CC1,"inconclusive [inhibitor, full curve]"
2,CCN1C/C(=C/c2ccc(OC)c(O)c2)C(=O)/C(=C/c2ccc(OC)c(O)c2)C1,"inconclusive [inhibitor, partial curve]"
3,CN(C)S(=O)(=O)c1cccc(NC(=O)COC(=O)c2cc(=O)[nH]c(=O)[nH]2)c1,"inconclusive [inhibitor, full curve, poor fit]"
4,COc1cc(/C=N/NC(=O)c2cccnc2)ccc1OS(=O)(=O)c1cc(C)ccc1C,"inconclusive [inhibitor, partial curve]"
5,Cc1cc(C)cc(NC(=O)c2cn3c4c(ccc(Cl)c4c2=O)OC(C)C3)c1 (stereo not drawn),inactive
6,CCOC(=O)N1CCC(=NNc2ccc(S(=O)(=O)N3CCOCC3)cc2[N+](=O)[O-])CC1,"inconclusive [activator, single point]"
7,C=CCNC(=O)c1ccccc1CCc1ccccc1,"inconclusive [inhibitor, full curve, poor fit]"
8,O=C(Nc1ccccc1)Nc1ccccc1NS(=O)(=O)c1cccs1,inactive
9,O=C(Nc1ccccc1)c1cc2ccccc2c(=O)s1,"inconclusive [inhibitor, partial curve, poor fit]"
10,COc1cc(NC(=O)Nc2cccc(Cl)c2)c(OC)cc1NC(=O)CN1CCCCC1,"inconclusive [activator, full curve]"
11,Cc1ccc(C)c(C(=O)CSc2nc(-c3ccccc3)nc3c2CCCC3)c1,inactive
12,O=C(N/N=C/C(Br)=C\c1ccccc1)c1cccs1,"inconclusive [inhibitor, partial curve]"
13,Cc1ccc(-c2nnc(Nc3cccc(Br)c3)c3ccccc23)cc1S(=O)(=O)N1CCCCC1,"inconclusive [inhibitor, partial curve]"
14,Cc1ccc(/C=C/C(=O)NCc2cccs2)o1,"inconclusive [inhibitor, partial curve, poor fit]"
15,O=C(O)c1ccccc1NC(=S)NC(=O)c1cccc2ccccc12,inactive
16,CCOC(=O)Cc1csc(NC(=O)CCNS(=O)(=O)c2ccc3c(c2)CCC(=O)N3)n1,"inconclusive [inhibitor, single point]"
17,Cc1[nH]c2ccccc2c1C(=O)COC(=O)c1c(-c2ccccc2)noc1C,"inconclusive [inhibitor, partial curve]"
18,Cn1c(-c2cccs2)[n+](C)c2ccccc21,"inconclusive [inhibitor, single point]"
19,N[C@@H](Cc1c[nH]c2ccc(O)cc12)C(=O)O,"inconclusive [inhibitor, partial curve]"
20,O=C(O)Cc1nn(Cc2ccc(Br)cc2F)c(=O)c2ccccc12,inactive
21,CCOC(=O)COc1ccc(/C=C(\C#N)c2nc3ccc(C)cc3[nH]2)cc1OC,"inconclusive [inhibitor, full curve]"
